{"source": "patent US12390508B2", "about": "“Brain natriuretic peptide engrafted antibodies” (Boehringer Ingelheim International GmbH, priority 2018, dated 2025)", "molecules": {"B1": {"name": "TPP-10274: ANP engrafted antibody, CDRH3; HC SEQ ID NO 68, LC SEQ ID NO 66 (antibody, listed as Homo sapiens)", "heavy": "EVQLLESGGGLVQPGGSLRLSCAASGFTFSSYAMSWVRQAPGKGLEWVSAISGSGGSTYYADSVKGRFTISRDNSKNTLYLQMNSLRAEDTAVYYCTSVHQETKKYQSSPDGGSGGSLRRSSCFGGRMDRIGAQSGLGCNSFRYGSYSYTYNYEWHVDVWGQGTLVTVSS[in this place human IgG1 constant region]", "light": "QSVLTQPPSVSGAPGQRVTISCTGSSSNIGAGYDVHWYQQLPGTAPKLLIYGNSNRPSGVPDRFSGSKSGTSASLAITGLQAEDEADYYCQSYDSSLSGVVFGGGTKLTVLGQPKAAPSVTLFPPSSEELQANKATLVCLISDFYPGAVTVAWKADSSPVKAGVETTTPSKQSNNKYAASSYLSLTPEQWKSHRSYSCQVTHEGSTVEKTVAPTECS", "modifications": "NP engrafted HC"}, "B2": {"name": "TPP-10290: ANP engrafted antibody, CDRH3; HC SEQ ID NO 71, LC SEQ ID NO 66 (antibody, listed as Homo sapiens)", "heavy": "[in this place about 100 residues]VHPNPNPNPNSPDGGSGGSLRRSSCFGGRMDRIGAQSGLGCNSFRYGSYNPNPNPNPHVDVWGQGTTVTVSS[in this place human IgG1 constant region]", "light": "QSVLTQPPSVSGAPGQRVTISCTGSSSNIGAGYDVHWYQQLPGTAPKLLIYGNSNRPSGVPDRFSGSKSGTSASLAITGLQAEDEADYYCQSYDSSLSGVVFGGGTKLTVLGQPKAAPSVTLFPPSSEELQANKATLVCLISDFYPGAVTVAWKADSSPVKAGVETTTPSKQSNNKYAASSYLSLTPEQWKSHRSYSCQVTHEGSTVEKTVAPTECS", "modifications": "NP engrafted HC"}, "B3": {"name": "TPP-10845: ANP engrafted antibody, CDRH2; HC SEQ ID NO 74, LC SEQ ID NO 66 (antibody, listed as Homo sapiens)", "heavy": "EVQLLESGGGLVQPGGSLRLSCAASGFTFSSYAMSWVRQAPGKGLEWVSAISGSTYISNVNHKPDGGSGGSLRRSSCFGGRMDRIGAQSGLGCNSFRYGSNTKVDKKVEGGSTYYADSVKGRFTISRDNSKNTLYLQMNSLRAEDTAVYYCAKLTGAEYFQHWGQGTLVTVSS[in this place human IgG1 constant region]", "light": "QSVLTQPPSVSGAPGQRVTISCTGSSSNIGAGYDVHWYQQLPGTAPKLLIYGNSNRPSGVPDRFSGSKSGTSASLAITGLQAEDEADYYCQSYDSSLSGVVFGGGTKLTVLGQPKAAPSVTLFPPSSEELQANKATLVCLISDFYPGAVTVAWKADSSPVKAGVETTTPSKQSNNKYAASSYLSLTPEQWKSHRSYSCQVTHEGSTVEKTVAPTECS", "modifications": "NP engrafted HC"}, "B4": {"name": "TPP-13054: ANP engrafted antibody, CDRH1; HC SEQ ID NO 77, LC SEQ ID NO 66 (antibody, listed as Homo sapiens)", "heavy": "EVQLLESGGGLVQPGGSLRLSCAASGFTFGSGSGSGGSGGSLRRSSCFGGRMDRIGAQSGLGCNSFRYGGSGGSGSGSGMSWVRQAPGKGLEWVSAISGSGGSTYYADSVKGRFTISRDNSKNTLYLQMNSLRAEDTAVYYCAKLTGAEYFQHWGQGTLVTVSS[in this place human IgG1 constant region]", "light": "QSVLTQPPSVSGAPGQRVTISCTGSSSNIGAGYDVHWYQQLPGTAPKLLIYGNSNRPSGVPDRFSGSKSGTSASLAITGLQAEDEADYYCQSYDSSLSGVVFGGGTKLTVLGQPKAAPSVTLFPPSSEELQANKATLVCLISDFYPGAVTVAWKADSSPVKAGVETTTPSKQSNNKYAASSYLSLTPEQWKSHRSYSCQVTHEGSTVEKTVAPTECS", "modifications": "NP engrafted HC"}, "B5": {"name": "TPP-10294: ANP engrafted antibody, CDRH1; HC SEQ ID NO 72, LC SEQ ID NO 66 (antibody, listed as Homo sapiens)", "heavy": "EVQLLESGGGLVQPGGSLRLSCAASGFTFGSGSGSGSGSGSPDGGSGGSLRRSSCFGGRMDRIGAQSGLGCNSFRYGSYGSGSGSGSGSGMSWVRQAPGKGLEWVSAISGSGGSTYYADSVKGRFTISRDNSKNTLYLQMNSLRAEDTAVYYCAKLTGAEYFQHWGQGTLVTVSS[in this place human IgG1 constant region]", "light": "QSVLTQPPSVSGAPGQRVTISCTGSSSNIGAGYDVHWYQQLPGTAPKLLIYGNSNRPSGVPDRFSGSKSGTSASLAITGLQAEDEADYYCQSYDSSLSGVVFGGGTKLTVLGQPKAAPSVTLFPPSSEELQANKATLVCLISDFYPGAVTVAWKADSSPVKAGVETTTPSKQSNNKYAASSYLSLTPEQWKSHRSYSCQVTHEGSTVEKTVAPTECS", "modifications": "NP engrafted HC"}, "B6": {"name": "TPP-10765: ANP engrafted antibody, CDRH2; HC SEQ ID NO 73, LC SEQ ID NO 66 (antibody, listed as Homo sapiens)", "heavy": "EVQLLESGGGLVQPGGSLRLSCAASGFTFSSYAMSWVRQAPGKGLEWVSAISGPNPNKNPNPNPGSGGSLRRSSCFGGRMDRIGAQSGLGCNSFRYGSNPNENPNPNPGSTYYADSVKGRFTISRDNSKNTLYLQMNSLRAEDTAVYYCAKLTGAEYFQHWGQGTLVTVSS[in this place human IgG1 constant region]", "light": "QSVLTQPPSVSGAPGQRVTISCTGSSSNIGAGYDVHWYQQLPGTAPKLLIYGNSNRPSGVPDRFSGSKSGTSASLAITGLQAEDEADYYCQSYDSSLSGVVFGGGTKLTVLGQPKAAPSVTLFPPSSEELQANKATLVCLISDFYPGAVTVAWKADSSPVKAGVETTTPSKQSNNKYAASSYLSLTPEQWKSHRSYSCQVTHEGSTVEKTVAPTECS", "modifications": "NP engrafted HC"}, "B7": {"name": "TPP-13061: ANP engrafted antibody, CDRH2; HC SEQ ID NO 78, LC SEQ ID NO 66 (antibody, listed as Homo sapiens)", "heavy": "EVQLLESGGGLVQPGGSLRLSCAASGFTFSSYAMSWVRQAPGKGLEWVSAISVVVTSHQAPGEGGSGGSLRRSSCFGGRMDRIGAQSGLGCNSFRYGGSTPLKSLASTYYADSVKGRFTISRDNSKNTLYLQMNSLRAEDTAVYYCAKLTGAEYFQHWGQGTLVTVSS[in this place human IgG1 constant region]", "light": "QSVLTQPPSVSGAPGQRVTISCTGSSSNIGAGYDVHWYQQLPGTAPKLLIYGNSNRPSGVPDRFSGSKSGTSASLAITGLQAEDEADYYCQSYDSSLSGVVFGGGTKLTVLGQPKAAPSVTLFPPSSEELQANKATLVCLISDFYPGAVTVAWKADSSPVKAGVETTTPSKQSNNKYAASSYLSLTPEQWKSHRSYSCQVTHEGSTVEKTVAPTECS", "modifications": "NP engrafted HC"}, "B8": {"name": "TPP-10283: ANP engrafted antibody, CDRH2; HC SEQ ID NO 70, LC SEQ ID NO 66 (antibody, listed as Homo sapiens)", "heavy": "EVQLLESGGGLVQPGGSLRLSCAASGFTFSSYAMSWVRQAPGKGLEWVSAISGPNPNPNPNPNSPDGGSGGSLRRSSCFGGRMDRIGAQSGLGCNSFRYGSYNPNPNPNPNPGSTYYADSVKGRFTISRDNSKNTLYLQMNSLRAEDTAVYYCAKLTGAEYFQHWGQGTLVTVSS[in this place human IgG1 constant region]", "light": "QSVLTQPPSVSGAPGQRVTISCTGSSSNIGAGYDVHWYQQLPGTAPKLLIYGNSNRPSGVPDRFSGSKSGTSASLAITGLQAEDEADYYCQSYDSSLSGVVFGGGTKLTVLGQPKAAPSVTLFPPSSEELQANKATLVCLISDFYPGAVTVAWKADSSPVKAGVETTTPSKQSNNKYAASSYLSLTPEQWKSHRSYSCQVTHEGSTVEKTVAPTECS", "modifications": "NP engrafted HC"}, "B9": {"name": "B12 (antibody)", "heavy": "[in this place about 100 residues]GITGTKKYQSSPDGGSGGMVQGSGCFGRKMDRISSSSGLGCKVLRRGSYSYTYNYAEYFQHWGQGTLVTVSS[in this place human IgG1 constant region]", "light": "QSVLTQPPSVSGAPGQRVTISCTGSSSNIGAGYDVHWYQQLPGTAPKLLIYGNSNRPSGVPDRFSGSKSGTSASLAITGLQAEDEADYYCQSYDSSLSGVVFGGGTKLTVLGQPKAAPSVTLFPPSSEELQANKATLVCLISDFYPGAVTVAWKADSSPVKAGVETTTPSKQSNNKYAASSYLSLTPEQWKSHRSYSCQVTHEGSTVEKTVAPTECS"}}, "assay": "Purity of purified compound samples by capillary Gel Electrophoresis under reduced conditions", "details": "for % purity pcs: reduced conditions", "protocol": "The purity of purified compound samples (Example 5, Table 7, column “% purity pcs”) was determined by capillary Gel Electrophoresis according to manufacturer's instructions (LabChip GX, Caliper Life Sciences) under reduced conditions. The purity in % was calculated as sum of peak areas corresponding to the intact light and heavy chain relative to the sum of all peaks observed.", "key": {"[1]": {"details": "purified compound samples, capillary Gel Electrophoresis"}, "[2]": {"details": "Table 9 (excerpt of Table 7), capillary gel electrophoresis, sum of intact light and heavy chain peaks"}}, "data": [{"molecule": "B1", "values": [{"measurement": "% purity pcs", "setting": "[1]", "value": 84, "unit": "%"}]}, {"molecule": "B2", "values": [{"measurement": "% purity pcs", "setting": "[2]", "value": 99, "unit": "%"}, {"measurement": "% purity pcs", "setting": "[1]", "value": 99, "unit": "%"}]}, {"molecule": "B3", "values": [{"measurement": "% purity pcs", "setting": "[2]", "value": 95, "unit": "%"}, {"measurement": "% purity pcs", "setting": "[1]", "value": 95, "unit": "%"}]}, {"molecule": "B4", "values": [{"measurement": "% purity pcs", "setting": "[2]", "value": 96, "unit": "%"}, {"measurement": "% purity pcs", "setting": "[1]", "value": 96, "unit": "%"}]}, {"molecule": "B5", "values": [{"measurement": "% purity pcs", "setting": "[2]", "value": 97, "unit": "%"}, {"measurement": "Purity", "setting": "Table 11, ANP engrafted IgG4 constructs with varying germline sequences", "value": 99}, {"measurement": "% purity pcs", "setting": "[1]", "value": 97, "unit": "%"}]}, {"molecule": "B6", "values": [{"measurement": "% purity pcs", "setting": "[2]", "value": 95, "unit": "%"}, {"measurement": "% purity pcs", "setting": "[1]", "value": 95, "unit": "%"}]}, {"molecule": "B7", "values": [{"measurement": "% purity pcs", "setting": "[2]", "value": 96, "unit": "%"}, {"measurement": "% purity pcs", "setting": "[1]", "value": 96, "unit": "%"}]}, {"molecule": "B8", "values": [{"measurement": "% purity pcs", "setting": "[2]", "value": 98, "unit": "%"}, {"measurement": "% purity pcs", "setting": "[1]", "value": 98, "unit": "%"}]}, {"molecule": "B9", "values": [{"measurement": "% purity pcs", "setting": "Table 8, purified compound samples, capillary gel electrophoresis", "value": 97, "unit": "%"}]}]}
